B1: LINE1-mini (parent)
chain: GGCAGAGCUCAACACAGCGUGGCAAAGUGGCUGUGGCUAGACUGCC

The source of these data is the RNAGym collection of RNA variant scans (doi:10.7554/elife.90254).

The source gives no read counts; variants with many changes may rest on few reads.

This series covers variants of B1. As to the kind of experiment: self-cleavage, relative activity (ratio to wild type); higher = more cleavage; in vitro, sequencing; the parent is a self-cleaving ribozyme.
As to GGCAGACCUCAACACAGAGUGGCAAAGUGGCUGUGGCUAGACCGCC [G7C C18A U43C], the self-cleavage is 0.04.

As for GGCAGACCUCAACACAGCGUGGCAAAGUGGCUUUGGCUAGAUUGCC [G7C G33U C42U], the self-cleavage was 0.08.

For the variant GGCAGACCUCAACACAGCGUGUCAAAGUGGCUGUUGCUAGAGUGCC [G7C G22U G35U C42G], the self-cleavage is 0.12.

For the variant GGCAGACCUCAACACAGCGUAGAAAAGUGUCUGUCGCUACACUGCC [G7C G21A C23A G30U G35C G40C], the self-cleavage is 0.02.

GGCAGACCUCAACACAGCGUGCCAAAGUGGCUGUGGCUAGACUGCA [G7C G22C C46A]: the self-cleavage was 0.05.

Turning to GGCAGACCUCAACACAGUGGGUCAAAGUGGCUGUGGCUAGACUGCC [G7C C18U U20G G22U], the self-cleavage is 0.04.

On to GGCAGACCACAACACAGCGUGGAAAAGUGACUGUGGCUAGACUACC [G7C U9A C23A G30A G44A], for which the self-cleavage was 0.02.

For the variant GGCAGACCUCAACACAGCGUUGCAAAAUGGCUGUGGCUAGAAUGCC [G7C G21U G27A C42A], the self-cleavage came out at 0.04.

Turning to GGCAGACCUCAACACAACGUUGCAAAGUGGCUGUGGCUAGACUGCC [G7C G17A G21U], the self-cleavage worked out at 0.16.

GGCAGACCUCAACACAGCGUGCCAAAGUGGCUCUGGCUAGAUUGGC [G7C G22C G33C C42U C45G]: the self-cleavage worked out at 0.01.

With GGCAGACCUCAACACAGCGUGGCAAAGUGACUGUGGCAAGACUGCG [G7C G30A U38A C46G], the self-cleavage was 0.04.

For the variant GGCAGACCUCAACACAGCGUGGCAAAGUCGUUGUGGCUAGAGUGCC [G7C G29C C31U C42G], the self-cleavage stood at 0.05.

For GGCAGACCUCAACACAACGUGGCAAAGUGUCUGUGGCUAGACUGCC [G7C G17A G30U], the self-cleavage came out at 0.01.

Consider GGCAGACCUCAACACAGCGUGGUACAGUGGCUGUGGCUAGACUGCC [G7C C23U A25C], for which the self-cleavage came to 0.06.

Turning to GGCAGACCUCAACACAGCGUGGCAAAAUGGCCGUGCCUAGACUGCC [G7C G27A U32C G36C], the self-cleavage stood at 0.02.

Consider GGCAGACCUCAACACAGCGUGGGAAAGAGGCUUUGGCUAGACUGCC [G7C C23G U28A G33U], for which the self-cleavage was 0.02.

On to GGCAGACCUCAACACAGCAUGGCAAAGUGGCCGUGGCUAGACUGAC [G7C G19A U32C C45A], for which the self-cleavage turned out to be 0.02.

Regarding GGCAGACCUCAACACAGCGUGGCAAAGUGGUUGUGGUUAGACUGCC [G7C C31U C37U], the self-cleavage worked out at 0.02.

Regarding GGCAGACCUCAACACAUCCUGGCAAAGUGGCUGUGGUUAGACUGUC [G7C G17U G19C C37U C45U], the self-cleavage is 0.01.

Regarding GGCAGACCUCAACACAACAUGGCAAAGUGGCUGUGGCUAGACUGCC [G7C G17A G19A], the self-cleavage came out at 0.07.

As to GGCAGACCUCAACACAUCGUGGCAAAGUGGUUGUGGCAAGACUGCC [G7C G17U C31U U38A], the self-cleavage turned out to be 0.02.

As to GGCAGACCUCAACACAGCGUGGCAAAGUGACUGCGGCUAGACUACC [G7C G30A U34C G44A], the self-cleavage was determined as 0.05.

For GGCAGACCUCAACACAGCGUGGCAAAUUGGCUGUGGCUCGACCGCG [G7C G27U A39C U43C C46G], the self-cleavage turned out to be 0.06.

Turning to GGCAGACCUCAACACAGUGUGGCAAAGUGGCCGUGGAUAGACUGCC [G7C C18U U32C C37A], the self-cleavage amounted to 0.02.

Regarding GGCAGACCUCAACACAGCGUGGCAAAGUGGAUGUGUCUAGACUCCC [G7C C31A G36U G44C], the self-cleavage was determined as 0.01.

As to GGCAGACCUCAACACAGCGUCGCGAAGUGGCUGUGGCUAGACUGCC [G7C G21C A24G], the self-cleavage stood at 0.07.

For GGCAGACCUCAACACAGCAGGGCAAAGUGGCUGUGUCCAGACUGCC [G7C G19A U20G G36U U38C], the self-cleavage was found to be 0.03.

Regarding GGCAGACCUCAACACACCGUGGCAUAGUGGCUGUGGCUAGACUGCC [G7C G17C A25U], the self-cleavage came to 0.06.

Turning to GGCAGACCUCAACACAGGGUGGCACAGUGGCAGUGGCUAGAUUGCC [G7C C18G A25C U32A C42U], the self-cleavage was 0.01.

Take GGCAGACCUCAACACAGCGUGGCAAAGUGCCUAUGGCUAGACUGCC [G7C G30C G33A]: the self-cleavage came out at 0.09.

As for GGCAGACCUCAACACAGCGUUGCAGAGUGGCCGUGGCUAGACUGCC [G7C G21U A25G U32C], the self-cleavage turned out to be 0.05.

Consider GGCAGACCUCAACACAGUGUGGCAAAGUGGCUGUGUCUAGACUCCC [G7C C18U G36U G44C], for which the self-cleavage is 0.11.

In the case of GGCAGACCUCAACACAGCGUGGAAAGGUUGCUGUGGCUAGACUGCC [G7C C23A A26G G29U], the self-cleavage was determined as 0.26.

For GGCAGACCUCAACACAGCUUGGCAAGGUGGCUGUGGCUAGGCUGCC [G7C G19U A26G A41G], the self-cleavage was found to be 0.03.

Consider GGCAGACCUCAACACAACGUGGCAAAGUGCCUGUGGGUAGAUUGCC [G7C G17A G30C C37G C42U], for which the self-cleavage is 0.04.

In the case of GGCAGACCUCAACACAGCUUGGCAAAGUGACUGUGGCUAAACUGCC [G7C G19U G30A G40A], the self-cleavage was determined as 0.13.

GGCAGACCUCAACACAGCGUGACAAAAUGGCUGUGGCUUGACUGCC [G7C G22A G27A A39U]: the self-cleavage worked out at 0.04.

In the case of GGCAGACCUCAACACAGCGUGGCAAAGUGGCUGUGGAUAAACUGCU [G7C C37A G40A C46U], the self-cleavage amounted to 0.18.

On to GGCAGACCUCAACACAGUGUGGCAAAGUGGAUGUGGCUCGACUGCC [G7C C18U C31A A39C], for which the self-cleavage worked out at 0.05.

Regarding GGCAGACCACGACACAGCGUGGCAUAGUGGCUGUGGCUAGACUCCC [G7C U9A A11G A25U G44C], the self-cleavage came to 0.01.

As for GGCAGACCUCAACACAUCAUGGCAAAGUGGCUGUGGCUAGAUCGCC [G7C G17U G19A C42U U43C], the self-cleavage worked out at 0.06.

Turning to GGCAGACCUCAACACAGCCUGGCAAAGUCGCUGUGGCUAGACUGCC [G7C G19C G29C], the self-cleavage was 0.03.

GGCAGACCUCAACACAGAGUGGCAAAGUGGCAGUGGCUAGAUUGCC [G7C C18A U32A C42U]: the self-cleavage came to 0.03.

Turning to GGCAGACCUCAACACAGCGUAGCAAAAUGGCUGUGGCUAGACUGCC [G7C G21A G27A], the self-cleavage came out at 0.03.

Turning to GGCAGACCUCAACACAGCGUAGCAAAUUGGCUGUGGCUAGACUGCC [G7C G21A G27U], the self-cleavage was determined as 0.09.

Consider GGCAGACCUCAACACAGCGUGGCAAAGUGGGUGUGGCUACACUGCC [G7C C31G G40C], for which the self-cleavage was 0.02.

For the variant GGCAGACCUCAACACAGCGUAGCACAGUGGCUGUGGCUAGAAUGCC [G7C G21A A25C C42A], the self-cleavage stood at 0.09.

Take GGCAGACCUCAACACAGGGUGGCCAAGUGGCUGUGGCUAGACUGCC [G7C C18G A24C]: the self-cleavage was 0.05.

In the case of GGCAGACCUCAACACAGCGUGGCAAAGUGGCUGUGGCUAGACUUCA [G7C G44U C46A], the self-cleavage is 0.09.

In the case of GGCAGACCUCAACACAGUGUGGCAAAGUGACUGUGCCUAGACUGCC [G7C C18U G30A G36C], the self-cleavage is 0.32.

GGCAGACCUCAACACAGCGUGGCAAAGUUGCUGUGGCUAGUCUGCC [G7C G29U A41U]: the self-cleavage is 0.25.

On to GGCAGACCUCAACACAGCGUGGCAAAGUGGGUGUGUCUAGACUGCC [G7C C31G G36U], for which the self-cleavage stood at 0.14.

On to GGCAGACCUCAACACAGCGUGGCAAAGUUGCUGUGUCUAGACUGCC [G7C G29U G36U], for which the self-cleavage came out at 0.02.

Regarding GGCAGACCUCAACACAGCGUGGCAAAGUGCCUGUGGCUAGACUGAC [G7C G30C C45A], the self-cleavage came to 0.09.

Take GGCAGACCUCAACACAGCGUGGCAAACUGGCUGUGGCUAGACUACC [G7C G27C G44A]: the self-cleavage was determined as 0.06.

Take GGCAGACCUCAACACAGCGUCGCAAAGUGGCUCUGGCUAGACUGCC [G7C G21C G33C]: the self-cleavage was determined as 0.04.
